Article PMC12136788
This is one part of the list.

T1: UNK ZnF1-6 (called full-length) (human, UniProt Q9C0B0 30-357)
T1 sequence: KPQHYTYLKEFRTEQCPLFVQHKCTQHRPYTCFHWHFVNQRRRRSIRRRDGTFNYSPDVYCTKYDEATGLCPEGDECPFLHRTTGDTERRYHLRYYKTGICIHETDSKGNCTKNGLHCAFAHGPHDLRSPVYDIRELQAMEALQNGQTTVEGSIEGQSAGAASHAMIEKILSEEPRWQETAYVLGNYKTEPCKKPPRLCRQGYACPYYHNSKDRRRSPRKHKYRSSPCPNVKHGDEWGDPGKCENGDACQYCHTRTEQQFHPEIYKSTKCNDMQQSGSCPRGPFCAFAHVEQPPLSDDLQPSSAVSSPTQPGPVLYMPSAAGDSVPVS

B1: chr11:112063736:112063838:+|3pUTR|ENSG00000150768|unk|total|mutant (ssRNA)
RNA: GGGAGUUCUACAGUCCGACGAUCGAGAGAAAAAAUUAACCCGGUUGCUACUUUAUUUGCCUAAAUACUUUUUUCUAUUUUGUCCGAUUUUGCCUUUCUUUUGGAAGGAAGGAGGCGAUAUUCUGGAUUAUAAAAAUGAAUUGGCAACAGAGGAUUGAGCAUCA
B2: ENSG00000070961:be:win_5801|3pUTR|ENSG00000070961|bound_else_gene|NA|bound_elsewhere_windowed (ssRNA)
RNA: GGGAGUUCUACAGUCCGACGAUCGAAAAGGGAAAUGUUUUCAGUUUUCUUUUUUAUUUUGGUUAUGCUUAAAUAUGAAUGUAAUUACCAAAAGAUUUAGAAGUGCAUGUGCUUUGGAGGAUUUGUAUUGAGCUUUUACAGUAUCAACAGAGGAUUGAGCAUCA
B3: chr15:74179522:74179623:-|3pUTR|ENSG00000137868|msi1|total|mutant (ssRNA)
RNA: GGGAGUUCUACAGUCCGACGAUCUCAUGACUCAGACCAGGUCCCACACUGAGCUGCCCACACUCGAGAGCCAGAUAUUUUUGCCGUUUUUAUGCCUUUGGCUAUUAUGAAAGAGGUCCGUGUGUUCCCUGCAAUAAACUUGUUCAACAGAGGAUUGAGCAUCA
B4: chr12:76025442:76025543:-|3pUTR|ENSG00000139289|msi1|total|mutant (ssRNA)
RNA: GGGAGUUCUACAGUCCGACGAUCAUACACCAUCACAUUCAUGAAUUUUUCCGCAUGGUCAGAACUUGUGUAAAUAUGUCUCUCCGAUGAUUUUGGGGAGAUGUGAUUUAUUUUUCAUAUUUUCAAAAUGCAUUUCAUUUCAAACAACAGAGGAUUGAGCAUCA
B5: ENSG00000198589:be:win_101|CDS|ENSG00000198589|bound_else_gene|NA|bound_elsewhere_windowed (ssRNA)
RNA: GGGAGUUCUACAGUCCGACGAUCCUCUGAAACCAGGGCUCCCCAUCAGGGGCAUCAGAAUGAAAUUUGCCGUGUUGACCGGUUUGGUUGAAGUUGGAGAAGUAUCCAAUAGGGAUAUUGUAGAAACUGUCUUUAACCUGUUGGCAACAGAGGAUUGAGCAUCA
B6: chr17:29498396:29498497:+|CDS|ENSG00000160551|msi1|FALSE|bound_elsewhere (ssRNA)
RNA: GGGAGUUCUACAGUCCGACGAUCCAGCAGCCAAAGCAGUAGUGUUAACAGUCUUCCAGAUGUCUCAGAUGACAAGAGUGAGCUAGACAUGAUGGAGGGAGACCACACAGUGAUGUCUAACAGUUCUGUUAUCCAUUUAAAACCCAACAGAGGAUUGAGCAUCA
B7: chr17:49055506:49055607:+|3pUTR|ENSG00000159217|unk|total|mutant (ssRNA)
RNA: GGGAGUUCUACAGUCCGACGAUCCACUUCCCGGCUGUGGGGGCUGGGGAGCCACUUGUAACAUUUCUGUGCAGAUUUUAUGUCCGCCACUGCUAUGUAAAAGCACGUUCAAAAUGAAUUUCAGCAGAUUAUGUGUUACCAUAACAACAGAGGAUUGAGCAUCA
B8: ENSG00000136451:be:win_3901|3pUTR|ENSG00000136451|bound_else_gene|NA|bound_elsewhere_windowed (ssRNA)
RNA: GGGAGUUCUACAGUCCGACGAUCAUAAACAGGAGUGAGACUUCAUUGUAUGACUUCAGUUAAAAUACUAUUUUGUAUGCAUUCUUUAUUCACUUAAGAAGCUUGUCUGCAAUAAUAAAGCCACGUCAUGUCUUCUUUUGGGAGCAACAGAGGAUUGAGCAUCA
B9: chr3:185511523:185511697:-|CDS|ENSG00000163898|control|control|control (ssRNA)
RNA: GGGAGUUCUACAGUCCGACGAUCUAAUCAAGAUCUGGAUAAAGUGGCUGCAAUUUCCUUGAUGUUCUCUACAGGAUCUCUAAUAGGCCCAAGGUACAAGCUCAGGAUUCUCCGAAUGAAGUUAAGGUCCCUUGCCCAUCCGGACAACAGAGGAUUGAGCAUCA
B10: chr3:43366700:43366801:-|3pUTR|ENSG00000160746|unk|total|mutant (ssRNA)
RNA: GGGAGUUCUACAGUCCGACGAUCACGGUGGCAGGGGGGGUACCCGGGGCAGCAUCGUGGCUCCUGAACCCAGACCCAAUGCUCCGCCAAACGAAGUGGCUCCCAUGUGGCAAGCACCCUUCUCAGUUUCGCAGUGGCUUGGCUCAACAGAGGAUUGAGCAUCA
B11: chr1:43997547:43997739:-|CDS|ENSG00000196517|control|control|control (ssRNA)
RNA: GGGAGUUCUACAGUCCGACGAUCAAGCAGAGACUGGGGCCCUGCCCUCCUGGAGCACCGGACAGGGCGCUACGCCCCCACCAUAGCCCCCUCUCCUGAGGACGGCUUCGAGGUCCAGCCACUGCACCCGGACAAGGCGCAGAUCAACAGAGGAUUGAGCAUCA
B12: chr12:108522223:108522324:-|3pUTR|ENSG00000075856|msi1|total|mutant (ssRNA)
RNA: GGGAGUUCUACAGUCCGACGAUCUCAGUCGGGUUUUCUAUAUUUUUUUAACUUAACAUUUUUUAAUAUAACCGAUUAAAAAGCCGACAGAACAGUAAAAUAAACUCCUGUGUGCCUACCAUUCAGCUUCCAGCAUUCCUCAACCAACAGAGGAUUGAGCAUCA
B13: chr10:11763304:11763405:+|CDS|ENSG00000134463|unk|FALSE|unique (ssRNA)
RNA: GGGAGUUCUACAGUCCGACGAUCGGGCUGCUUAGCAAGGUGGUGCCAGAGGCGGAGCUGCAGGAGGAGACCAUGCGGAUCGCUAGGAAGAUCGCAUCGCUGAGCCGUCCGGUGGUGUCCCUGGGCAAAGCCACCUUCUACAAGCAACAGAGGAUUGAGCAUCA
B14: ENSG00000120265:stop:overlap|stop_codon|ENSG00000120265|stop_codon|NA|stop_codon (ssRNA)
RNA: GGGAGUUCUACAGUCCGACGAUCUAGCUGACUCUACAGGAGAAGAAAUUUUUAGCUGCCGUACUUUAGAGGGACUGUUUUACUAGAUGAGCACGUUACCCUUUGGCAUGAUUAUAUUUUCUAAUUUUAACUGCUGGGUGACAGCAACAGAGGAUUGAGCAUCA

These binders were tested against T1, UNK ZnF1-6 (called full-length) (assay: nsRBNS (natural sequence RNA bind-n-seq); RBNS binding buffer (assumed for nsRBNS): 25 mM Tris pH 7.5, 150 mM KCl, 3 mM MgCl2, 0.01% Triton X-100, 500 ug/ml BSA, 20 U/ml SUPERase-In, 4 C; UNK is unkempt and MSI1 is Musashi-1; names of the RNAs are library labels; protein concentration not given here; high values mean tight binding).

Binder	binding signal
B1	0.572 enrichment R
B2	0.67 enrichment R
B3	0.699 enrichment R
B4	0.502 enrichment R
B5	0.698 enrichment R
B6	0.632 enrichment R
B7	0.518 enrichment R
B8	0.419 enrichment R
B9	0.287 enrichment R
B10	1.1 enrichment R
B11	0.841 enrichment R
B12	0.955 enrichment R
B13	0.722 enrichment R
B14	1.29 enrichment R
